{"source": "PubChem BioAssay AID2675", "about": "(National Center for Advancing Translational Sciences (NCATS), 2010)", "note": "Screen size: about 280,000 compounds; about 100 (0.036%) were called active. Inconclusive means that the source gave no clear call. Such entries were picked first, then a sample of the others. Calls follow the shape of the dose curve; as a rule, active = well fitted inhibition curve with a large enough effect in the signal ratio, with a control signal flat (not every such curve was filed as active); inconclusive = small, poorly fitted or top-dose-only effect, or effect the other way, or a change in a side signal; inactive = no such curve, though single readings can be large or run the other way; the % refers to the signal ratio. Potencies beside an inconclusive call are fits to weak or partial responses and may not hold up. A note “side channel” means that the fit belongs to a control or component signal, not to the main read-out. % is scaled to controls: 0 for no effect and ±100 for the full control effect; potency is read from the fitted curve at half-maximal effect; tags tell the direction and shape of the fitted curve or compound fluorescence and quenching."}
{"target": "Muscleblind-like protein 1 (Homo sapiens) (UniProt Q9NR56)", "sequence (Q9NR56 whole entry, looked up)": "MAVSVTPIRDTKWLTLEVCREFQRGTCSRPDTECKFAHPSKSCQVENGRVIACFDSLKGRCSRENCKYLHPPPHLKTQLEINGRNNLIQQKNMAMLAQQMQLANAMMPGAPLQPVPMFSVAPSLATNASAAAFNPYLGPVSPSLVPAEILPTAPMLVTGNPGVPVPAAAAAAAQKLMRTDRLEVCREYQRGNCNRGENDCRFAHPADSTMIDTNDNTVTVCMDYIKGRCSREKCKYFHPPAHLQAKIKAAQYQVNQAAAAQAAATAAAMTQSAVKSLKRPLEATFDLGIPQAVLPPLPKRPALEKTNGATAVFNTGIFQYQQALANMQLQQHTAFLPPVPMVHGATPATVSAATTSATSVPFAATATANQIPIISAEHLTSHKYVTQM", "experiment": "qHTS Assay for Inhibitors of MBNL1-poly(CUG) RNA binding", "conditions": "TR-FRET MBNL1-His/biotin-(CUG)12 binding, 665/545 ratio; activity change, negative = inhibition: at 57.5 µM (top of the series)", "outline": "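TR-FRET between His-tagged MBNL1 and biotin-(CUG)12 RNA, detected with Tb anti-His antibody (0.055 ng/ul) and streptavidin-XL665 (5 nM), 60 min at room temperature. Compounds titrated 92 nM to 58 uM; 665/545 nm ratio normalized to buffer and complex controls.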"}
{"smiles": "C/C(=N\\NC(=S)Nc1ccc(C)cc1)c1cc2ccccc2o1", "Potency": "inconclusive: 14.1 µM [quencher, side channel, partial curve]"}
{"smiles": "COc1ccc([N+](=O)[O-])cc1NC(=O)C1CCCNC1=O", "note": "(stereo not given)", "Potency": "inconclusive: 15.8 µM [quencher, side channel, partial curve]"}
{"smiles": "O=C(N/N=C/c1cc(Br)cc(Br)c1O)c1cccc(S(=O)(=O)N2CCOCC2)c1", "activity change, negative = inhibition": "inactive: -3.8%"}
{"smiles": "COc1ccc(CCN(C(=O)c2ccc(F)cc2)C2=CC3CCC(C2)N3C)cc1OC", "note": "(stereo not given)", "activity change, negative = inhibition": "inactive: 4.12%"}
{"smiles": "S=C(NC1CCCCC1)NN(c1ccccc1)c1ccccc1", "Potency": "inconclusive: 0.891 µM [quencher, side channel, single point]"}
{"smiles": "Cc1ccc(C(=O)/C=C/Nc2ccccc2C(N)=O)cc1", "Potency": "inconclusive: 3.98 µM [quencher, side channel, full curve]"}
{"smiles": "FC(F)(F)c1cccc(CNC(=S)Nc2ccccc2)c1", "Potency": "inconclusive: 4.47 µM [fluorescent, side channel, single point]"}
{"smiles": "CCOc1ccc(-n2nnnc2-c2nc3ccccc3s2)cc1", "Potency": "inconclusive: 0.355 µM [fluorescent, side channel, full curve, poor fit]"}
{"smiles": "Cc1c(C(=O)O)cccc1-n1c(C)cc(/C=C(/C#N)C(=O)NCc2ccccc2)c1C", "Potency": "inconclusive: 20 µM [quencher, single point]"}
{"smiles": "Cc1cc(N)ccc1N1CCCC1", "Potency": "inconclusive: 22.4 µM [quencher, side channel, partial curve, poor fit]"}
{"smiles": "Cc1ccc(N2CCN(CCc3nc4cc(NC(=O)c5ccco5)ccc4n3C)CC2)cc1", "activity change, negative = inhibition": "inactive: 0.227%"}
{"smiles": "O=C(O)c1cc(Cl)c2c(c1)[C@@H]1C=CC[C@@H]1[C@H](c1ccc(S(=O)(=O)N3CCOCC3)cc1)N2", "Potency": "inconclusive: 31.6 µM [quencher, single point]"}
{"smiles": "Cc1c(N=NC2=C(O)CCCC2=O)c(=O)n(-c2ccccc2)n1C", "Potency": "inconclusive: 28.2 µM [quencher, side channel, single point]"}
{"smiles": "O=C1CC(c2ccccc2)CC(O)=C1C=Nc1ccccc1O", "note": "(stereo not given)", "activity change, negative = inhibition": "inactive: 1.8%"}
{"smiles": "CCNCc1cc2cc(C)ccc2[nH]c1=O", "Potency": "inconclusive: 17.8 µM [quencher, side channel, single point]"}
{"smiles": "CCCc1nc(SCC(=O)c2ccccc2)c2c(=O)n(C)c(=O)n(C)c2n1", "activity change, negative = inhibition": "inactive: -3.01%"}
{"smiles": "Nc1c(Cl)ncnc1N/N=C/c1ccncc1", "Potency": "inconclusive: 31.6 µM [quencher, side channel, single point]"}
{"smiles": "CC(=O)c1ccc(NC(=S)NNC(=O)c2ccccc2[N+](=O)[O-])cc1", "Potency": "inconclusive: 28.2 µM [quencher, side channel, partial curve]"}
{"smiles": "Cc1ccc2nc(SCC(=O)N3CCOCC3)[nH]c2c1", "activity change, negative = inhibition": "inactive: 1.44%"}
{"smiles": "CCn1nc(NC(=O)c2ccncc2)c2cc3ccccc3nc21", "Potency": "inconclusive: 25.1 µM [quencher, single point]"}
{"smiles": "Cn1c(C(=O)N2CCCc3ccccc32)cc2c(=O)n3ccccc3nc21", "Potency": "inconclusive: 35.5 µM [quencher, side channel, single point]"}
{"smiles": "O=C(COC(=O)c1cc[n+]([O-])cc1)Nc1ccccc1Sc1ccccc1", "Potency": "inconclusive: 28.2 µM [quencher, side channel, partial curve]"}
{"smiles": "CCOc1cccc2sc(N(CCN(CC)CC)C(=O)c3cccc([N+](=O)[O-])c3)nc12", "Potency": "inconclusive: 35.5 µM [quencher, side channel, single point]"}
{"smiles": "COC(=O)c1sc(-c2ccc(Cl)cc2)cc1NC(=O)COCC(=O)O", "Potency": "inconclusive: 11.2 µM [quencher, side channel, partial curve]"}
{"smiles": "CCOC(=O)CCc1c(C)c2ccc(OCC(=O)OC(C)C)cc2oc1=O", "Potency": "inconclusive: 3.98 µM [quencher, side channel, single point]"}
{"smiles": "O=C1CCC/C1=C/Nc1ccc(Cl)cc1", "Potency": "inconclusive: 15.8 µM [quencher, side channel, partial curve]"}
{"smiles": "C=CC[n+]1c(/C=C/c2ccc(OC(C)=O)c(OC)c2)ccc2ccccc21", "Potency": "inconclusive: 3.16 µM [quencher, side channel, full curve]"}
{"smiles": "COc1ccc(C2C(Oc3ccccc3)C(=O)N2c2cc(C)ccc2C)cc1OC", "note": "(stereo not given)", "activity change, negative = inhibition": "inactive: -1.13%"}
{"smiles": "O=C(c1ccco1)N1CCN(c2c(-c3ccccc3)c3cc(Cl)ccc3[nH]c2=O)CC1", "Potency": "inconclusive: 39.8 µM [fluorescent, side channel, single point]"}
{"smiles": "CN=c1scc(-c2ccccc2F)n1/N=C/c1ccc(O)c(O)c1O", "Potency": "inconclusive: 35.5 µM [quencher, side channel, single point]"}
{"smiles": "O=C(O)CCCCCCCCCCP(=O)(c1ccccc1)c1ccccc1", "activity change, negative = inhibition": "inactive: 2.73%"}
{"smiles": "Cc1cccn2c(=O)c3cc(C#N)c(=NC(=O)c4cccs4)n(CCCOC(C)C)c3nc12", "Potency": "inconclusive: 4.47 µM [quencher, side channel, partial curve]"}
{"smiles": "COc1ccccc1N1CCN(/N=C/C=C\\c2ccccc2[N+](=O)[O-])CC1", "Potency": "inconclusive: 22.4 µM [quencher, side channel, partial curve]"}
{"smiles": "COC(=O)C1=C(C)OC(N)=C(C#N)C1c1cc(C)sc1C", "note": "(stereo not given)", "activity change, negative = inhibition": "inactive: -21%"}
{"smiles": "Cc1ccc(NC(=O)Cc2noc3ccccc23)cc1", "Potency": "inconclusive: 8.91 µM [quencher, side channel, single point]"}
{"smiles": "CNc1nc(C(=O)O)nc(N2CCOCC2)n1", "Potency": "inconclusive: 7.94 µM [fluorescent, side channel, single point]"}
{"smiles": "COc1ccc([N+](=O)[O-])cc1NC(=O)Nc1ccc(OC)c(OC)c1", "Potency": "inconclusive: 12.6 µM [quencher, side channel, partial curve]"}
{"smiles": "COc1ccc(S(=O)(=O)NC2CCCCC2)cc1C(=O)N1CCCCC1", "activity change, negative = inhibition": "inactive: 3.28%"}
{"smiles": "Cc1ccc(-c2nc(=O)[nH]c3ccc(Br)cc23)cc1", "Potency": "inconclusive: 10 µM [quencher, side channel, partial curve]"}
{"smiles": "COc1cc(NC(=O)c2ccc3c(SCC(=O)O)c4c(nc3c2)CCCC4)cc(OC)c1OC", "activity change, negative = inhibition": "inactive: -18.3%"}
